This is one part of the list.
B1: PhoQ; a variant is named by its letters at X, in order, P23837 (parent)
chain: MKKLLRLFFPLSLRVRFLLATAAVVLVLSLAYGMVALIGYSVSFDKTTFRLLRGESNLFYTLAKWENNKLHVELPENIDKQSPTMTLIYDENGQLLWAQRDVPWLMKMIQPDWLKSNGFHEIEADVNDTSLLLSGDHSIQQQLQEVREDDDDAEMTHSVAVNVYPATSRMPKLTIVVVDTIPVELKSSYMVWSWFIYVLSANLLLVIPLLWVAAWWSLRPIEALAKEVRELEEHNRELLNPATTRELTSLVRNLNRLLKSERERYDKYRTTLTDLTHSLKTPLXXLQXXLRSLRSEKMSVSDAEPVMLEQISRISQQIGYYLHRASMRGGTLLSRELHPVAPLLDNLTSALNKVYQRKGVNISLDISPEISFVGEQNDFVEVMGNVLDNACKYCLEFVEISARQTDEHLYIVVEDDGPGIPLSKREVIFDRGQRVDTLRPGQGVGLAVAREITEQYEGKIVAGESMLGGARMEVIFGRQHSAPKDE

Variants of: B1
Test: enrichment ratio after two sorts for PhoP signalling (ratio (wild type AVST 3.29)); higher = more functional
Conditions: with PhoP (E. coli)

Variant | enrichment ratio
KTHC | ≤ 0.25
RWCH | ≤ 0.25
QYSI | ≤ 0.25
LMPR | ≤ 0.25
EKCF | ≤ 0.25
ERAL | ≤ 0.25
DFLW | ≤ 0.25
YKWI | ≤ 0.25
VTYN | ≤ 0.25
MDQV | ≤ 0.25
HQPD | ≤ 0.25
YPWH | ≤ 0.25
AAVE | ≤ 0.25
WCCV | ≤ 0.25
WTLD | ≤ 0.25
GATI | ≤ 0.25
ISYR | ≤ 0.25
VFRS | ≤ 0.25
AFTH | ≤ 0.25
NVPQ | ≤ 0.25
EGYQ | ≤ 0.25
IFPV | ≤ 0.25
TDNN | 33.6
HNAQ | ≤ 0.25
GSQM | ≤ 0.25
TPID | ≤ 0.25

Variant | enrichment ratio
ESFM | ≤ 0.25
MMRM | ≤ 0.25
FCEW | ≤ 0.25
LPVN | ≤ 0.25
DRVR | ≤ 0.25
DSVL | ≤ 0.25
TCFC | ≤ 0.25
NHRS | ≤ 0.25
NCGQ | ≤ 0.25
QGCY | ≤ 0.25
TPDN | ≤ 0.25
PRML | ≤ 0.25
NTSI | ≤ 0.25
GMCS | 6.22
WKYG | ≤ 0.25
QCGE | 7.66
VFFH | ≤ 0.25
THYL | 1.6
EVVQ | ≤ 0.25
QNCQ | ≤ 0.25
FRNA | ≤ 0.25
DVPG | ≤ 0.25
MLLN | ≤ 0.25
YEYK | ≤ 0.25
IVKN | ≤ 0.25
PTEF | ≤ 0.25

Variant | enrichment ratio
MNMT | ≤ 0.25
ACCW | 5.23
PADM | ≤ 0.25
YDSS | ≤ 0.25
HSYK | ≤ 0.25
YTRC | ≤ 0.25
SMEN | ≤ 0.25
RSIV | ≤ 0.25
AMFV | ≤ 0.25
NCPQ | ≤ 0.25
TAYY | 7.33
PYCE | ≤ 0.25
YELC | 5.36
FTNF | ≤ 0.25
DNYA | ≤ 0.25
VRRF | ≤ 0.25
KPEP | ≤ 0.25
METY | 3.22
WNHM | ≤ 0.25
RYIN | ≤ 0.25
DWCY | ≤ 0.25
IQTF | ≤ 0.25
TDSM | 8.32
VSTN | 0.32
EAWT | ≤ 0.25
LNCQ | ≤ 0.25

Variant | enrichment ratio
GDDK | ≤ 0.25
TCLI | 0.877
WFYQ | ≤ 0.25
NILL | 0.938
DQPY | 0.637
HEQC | ≤ 0.25
QWAS | ≤ 0.25
DFTS | ≤ 0.25
THKH | ≤ 0.25
RELH | ≤ 0.25
EDHE | ≤ 0.25
ILNS | ≤ 0.25
TIGT | 8.46
LAVN | ≤ 0.25
QFMW | ≤ 0.25
PTNV | ≤ 0.25
NGAH | ≤ 0.25
NWRD | ≤ 0.25
TPAK | ≤ 0.25
HFFS | ≤ 0.25
LHCF | ≤ 0.25
KYRH | ≤ 0.25
DARP | ≤ 0.25
TGWD | ≤ 0.25
HWSR | ≤ 0.25
PCVA | ≤ 0.25

Variant | enrichment ratio
FINA | ≤ 0.25
LSDC | ≤ 0.25
RKGP | ≤ 0.25
ISRC | ≤ 0.25
FLDC | ≤ 0.25
ACMR | 1.61
PVTN | ≤ 0.25
GFER | ≤ 0.25
MQVI | ≤ 0.25
HGAH | ≤ 0.25
FQMY | ≤ 0.25
PIEN | ≤ 0.25
QFRT | ≤ 0.25
HDFA | ≤ 0.25
IQTQ | ≤ 0.25
RQMG | ≤ 0.25
FNTT | ≤ 0.25
TMLM | 6.66
APKM | ≤ 0.25
SSQS | ≤ 0.25
PKQQ | ≤ 0.25
INVP | ≤ 0.25
MCFG | 3.32
YELM | 13.8
EFRN | ≤ 0.25
PTCY | ≤ 0.25

Variant | enrichment ratio
TGYS | 1.45
LTFR | ≤ 0.25
WRGS | ≤ 0.25
CLLW | ≤ 0.25
MEYI | 11
AGHH | ≤ 0.25
SLGK | ≤ 0.25
TFSA | 8.36
NPFA | ≤ 0.25
FNHD | ≤ 0.25
AKKA | ≤ 0.25
FVHC | ≤ 0.25
ALCQ | 13.8
IAFT | ≤ 0.25
DHNI | ≤ 0.25
NNDL | ≤ 0.25
PQFT | ≤ 0.25
FIVM | 2.15
FKER | ≤ 0.25
TSEK | ≤ 0.25
EDAF | ≤ 0.25
RELM | ≤ 0.25
NMPC | ≤ 0.25
